No constants are given. Whether binding was seen depends on the method and setting. Binding seen in cells or lysates may run through a third protein. Some entries that bind do so weakly or less than the wild type. For some of these results: Where a sequence is shown, tags or fusion partners need not be part of it.

By UniProt entry, the sequences of proteins in these tests, tags left out. Where a name states a change or a piece, a line headed by the entry shows the natural chain unless it says otherwise.
UniProt Q01650: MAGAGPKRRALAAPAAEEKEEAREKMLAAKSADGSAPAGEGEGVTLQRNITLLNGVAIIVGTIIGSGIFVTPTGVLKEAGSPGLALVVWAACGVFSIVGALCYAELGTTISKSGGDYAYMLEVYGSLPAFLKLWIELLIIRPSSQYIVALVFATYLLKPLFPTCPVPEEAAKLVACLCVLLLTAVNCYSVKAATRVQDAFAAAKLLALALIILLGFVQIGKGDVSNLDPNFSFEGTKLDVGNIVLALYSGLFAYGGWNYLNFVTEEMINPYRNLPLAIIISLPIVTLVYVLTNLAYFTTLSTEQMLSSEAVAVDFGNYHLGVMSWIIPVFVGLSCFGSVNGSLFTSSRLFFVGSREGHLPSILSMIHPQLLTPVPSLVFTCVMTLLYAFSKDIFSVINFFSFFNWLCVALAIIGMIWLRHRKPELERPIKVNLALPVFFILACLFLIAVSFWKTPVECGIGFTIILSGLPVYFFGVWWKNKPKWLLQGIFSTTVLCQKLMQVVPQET

One experiment deals with Kv1.2-nanoluc (rat) (UniProt P63142). Nature of the experiment: FRET or BRET; live HEK293 cells; donor Kv1.2-nanoluc, acceptors tagged with mEGFP; emission spectra 400-700 nm, mEGFP component (area 480-600 nm) normalised to the mEGFP-Kv1.2 positive control; some samples with co-expressed Slc3a2. (In BRET a luciferase serves as donor, and the signal depends on an acceptor being close.)

The next experiment deals with Slc7a5-YFPC (UniProt Q01650). Kind of experiment: split reporter; split YFP (YFPN 1-157, YFPC 158-239) fused to two of Kv1.2, Slc7a5 and Slc3a2, the third tagged with LSS-mOrange (or LSS-mOrange alone); HEK cells, 1:1:1 transfection, 72 h, read by flow cytometry. (Flow cytometry measures light scatter and fluorescence of single cells or particles in a stream.)
In another experiment the target is Kv1.2-YFPC (rat) (UniProt P63142). Described as above.
The target in experiment [1] is T1, Kv1.2-nanoluc (rat), P63142.
T1 chain: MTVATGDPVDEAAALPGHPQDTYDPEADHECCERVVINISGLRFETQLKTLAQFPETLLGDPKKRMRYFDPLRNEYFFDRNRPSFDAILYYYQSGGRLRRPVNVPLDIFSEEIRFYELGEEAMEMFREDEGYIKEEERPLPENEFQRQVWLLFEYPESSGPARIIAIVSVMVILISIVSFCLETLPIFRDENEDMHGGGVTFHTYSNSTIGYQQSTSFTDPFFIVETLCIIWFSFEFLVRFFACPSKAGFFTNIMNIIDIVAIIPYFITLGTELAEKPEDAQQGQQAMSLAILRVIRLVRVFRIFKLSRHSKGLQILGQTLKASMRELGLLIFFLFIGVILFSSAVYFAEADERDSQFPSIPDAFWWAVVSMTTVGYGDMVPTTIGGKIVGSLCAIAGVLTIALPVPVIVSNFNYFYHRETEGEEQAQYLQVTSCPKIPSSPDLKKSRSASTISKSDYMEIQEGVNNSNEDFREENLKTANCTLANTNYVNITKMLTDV
Nature of the experiment: FRET or BRET; live HEK293 cells; donor Kv1.2-nanoluc, acceptors tagged with mEGFP; emission spectra 400-700 nm, mEGFP component (area 480-600 nm) normalised to the mEGFP-Kv1.2 positive control; some samples with co-expressed Slc3a2. The note with it: remark: other sources report otherwise.

In the case of “mEGFP-Slc7a5[P375L] (from UniProt Q01650 1-507)”, in the experiment with Kv1.2-nanoluc (rat), the binding result was “no binding”.
YFPN-Slc3a2 (from UniProt P08195 1-529): the binding result with Slc7a5-YFPC was “binds”.
As for Slc7a5-YFPN (from UniProt Q01650 1-507), the binding entry with Kv1.2-YFPC (rat) is reported as “binds”.
Consider “mEGFP-Slc7a5[A246V] (from UniProt Q01650 1-507)”, for which, in the experiment with Kv1.2-nanoluc (rat), the binding result is recorded as “no binding”.
Still for that read-out and setting: with “mEGFP-Slc7a5 (from UniProt Q01650 1-507)” the entry was “binds”.

B1: mEGFP-Slc1a5 (protein, UniProt Q15758 1-541)
chain: MVADPPRDSKGLAAAEPTANGGLALASIEDQGAAAGGYCGSRDQVRRCLRANLLVLLTVVAVVAGVALGLGVSGAGGALALGPERLSAFVFPGELLLRLLRMIILPLVVCSLIGGAASLDPGALGRLGAWALLFFLVTTLLASALGVGLALALQPGAASAAINASVGAAGSAENAPSKEVLDSFLDLARNIFPSNLVSAAFRSYSTTYEERNITGTRVKVPVGQEVEGMNILGLVVFAIVFGVALRKLGPEGELLIRFFNSFNEATMVLVSWIMWYAPVGIMFLVAGKIVEMEDVGLLFARLGKYILCCLLGHAIHGLLVLPLIYFLFTRKNPYRFLWGIVTPLATAFGTSSSSATLPLMMKCVEENNGVAKHISRFILPIGATVNMDGAALFQCVAAVFIAQLSQQSLDFVKIITILVTATASSVGAAGIPAGGVLTLAIILEAVNLPVDHISLILAVDWLVDRSCTVLNVEGDALGAGLLQNYVDRTESRSTEPELIQVKSELPLDPLPVPTEEGNPLLKHYRGPAGDATVASEKESVM
For the molecule B1, the binding entry with Kv1.2-nanoluc (rat) was “no binding”.

B2: Kv1.2-nanoluc, P63142 1-499 (protein)
chain: MTVATGDPVDEAAALPGHPQDTYDPEADHECCERVVINISGLRFETQLKTLAQFPETLLGDPKKRMRYFDPLRNEYFFDRNRPSFDAILYYYQSGGRLRRPVNVPLDIFSEEIRFYELGEEAMEMFREDEGYIKEEERPLPENEFQRQVWLLFEYPESSGPARIIAIVSVMVILISIVSFCLETLPIFRDENEDMHGGGVTFHTYSNSTIGYQQSTSFTDPFFIVETLCIIWFSFEFLVRFFACPSKAGFFTNIMNIIDIVAIIPYFITLGTELAEKPEDAQQGQQAMSLAILRVIRLVRVFRIFKLSRHSKGLQILGQTLKASMRELGLLIFFLFIGVILFSSAVYFAEADERDSQFPSIPDAFWWAVVSMTTVGYGDMVPTTIGGKIVGSLCAIAGVLTIALPVPVIVSNFNYFYHRETEGEEQAQYLQVTSCPKIPSSPDLKKSRSASTISKSDYMEIQEGVNNSNEDFREENLKTANCTLANTNYVNITKMLTDV
Regarding B2, in experiment [1], the binding entry is on record as “binds”.

These data come from publication PMC6200743.
